Reference: PubChem BioAssay AID504332 (National Center for Advancing Translational Sciences (NCATS), 2011)
Among all 350,000 compounds or so, about 31,000 (8.9%) were called active. The inconclusive results got no clear call from the source; some entries with a clear call stand among them for comparison. The call rests on the fitted dose curve; in most records, active means well fitted inhibition curve with a large enough effect; inconclusive means small, poorly fitted or top-dose-only effect; inactive means no such curve, though single readings can be large or run the other way. A potency beside an inconclusive call is a rough fit, not a confirmed value. Some compounds were tested as several samples or in several runs, with calls that do not always agree.

Target: Histone-lysine N-methyltransferase EHMT2 (Homo sapiens) (UniProt Q96KQ7)
Sequence of UniProt Q96KQ7 (Q96KQ7 whole entry, looked up): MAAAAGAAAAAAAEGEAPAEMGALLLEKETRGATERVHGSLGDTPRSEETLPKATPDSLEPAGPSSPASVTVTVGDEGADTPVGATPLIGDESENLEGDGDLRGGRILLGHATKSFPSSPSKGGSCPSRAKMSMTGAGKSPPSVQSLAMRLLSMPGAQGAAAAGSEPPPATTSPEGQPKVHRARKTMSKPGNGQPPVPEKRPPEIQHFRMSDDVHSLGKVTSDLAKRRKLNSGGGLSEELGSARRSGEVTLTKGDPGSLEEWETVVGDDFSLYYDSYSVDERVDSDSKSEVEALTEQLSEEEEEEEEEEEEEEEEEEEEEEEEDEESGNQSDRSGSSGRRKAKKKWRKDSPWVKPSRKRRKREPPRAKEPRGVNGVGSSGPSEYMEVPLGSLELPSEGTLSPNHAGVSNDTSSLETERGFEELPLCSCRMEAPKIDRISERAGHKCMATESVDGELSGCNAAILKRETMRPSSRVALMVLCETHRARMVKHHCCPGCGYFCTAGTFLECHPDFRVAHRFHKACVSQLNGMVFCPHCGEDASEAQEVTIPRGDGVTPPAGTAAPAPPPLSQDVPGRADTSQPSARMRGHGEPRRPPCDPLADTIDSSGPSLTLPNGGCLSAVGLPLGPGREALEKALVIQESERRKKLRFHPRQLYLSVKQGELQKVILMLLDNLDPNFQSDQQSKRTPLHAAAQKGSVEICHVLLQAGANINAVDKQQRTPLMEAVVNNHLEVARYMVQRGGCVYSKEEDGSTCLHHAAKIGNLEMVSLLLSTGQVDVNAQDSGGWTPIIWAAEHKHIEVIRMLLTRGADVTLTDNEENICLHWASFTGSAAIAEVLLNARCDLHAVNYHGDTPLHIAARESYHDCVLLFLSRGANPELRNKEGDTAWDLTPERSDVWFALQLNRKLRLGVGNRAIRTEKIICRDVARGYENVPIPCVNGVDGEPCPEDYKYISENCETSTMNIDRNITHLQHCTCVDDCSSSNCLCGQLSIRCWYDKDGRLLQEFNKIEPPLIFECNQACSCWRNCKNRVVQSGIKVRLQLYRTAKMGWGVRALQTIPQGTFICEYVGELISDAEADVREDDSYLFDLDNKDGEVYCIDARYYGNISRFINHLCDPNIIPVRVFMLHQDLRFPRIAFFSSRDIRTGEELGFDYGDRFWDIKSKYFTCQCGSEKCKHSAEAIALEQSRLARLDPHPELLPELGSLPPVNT
Experiment: qHTS Assay for Inhibitors of Histone Lysine Methyltransferase G9a; further: nearly all actives have a fitted effect of over 75% in size
Conditions: G9a H3K9 monomethylation, AlphaScreen, 2 h; activity, negative = inhibition: at 59 µM (top of the series) unless noted
How it was run: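 Using a bead-based AlphaScreen, monomethylated H3K9 product from 2 h room-temperature reactions (G9a 20 nM, peptide 500 nM, SAM 20 uM) was detected with 0.5 ug/mL rabbit anti-H3K9me1 antibody.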
On the % scale 0 is the no-effect control and ±100 the full control effect; potency means the concentration at half of the fitted maximal effect; tags describe the fitted curve by direction and shape.

| Compound | activity, negative = inhibition | Potency |
| --- | --- | --- |
| C#Cc1ccc(CN2CCN(CCCc3ccccc3)C(CCO)C2)cc1 (centres undefined) | inactive: -2.15% [at 0.501 µM] | – |
| COc1ccc(NC(=O)c2sc3nc(C)nc(N4CCN(c5ccccn5)CC4)c3c2C)cc1Cl | – | inconclusive: 15.8 µM [inhibitor, partial curve, poor fit] |
| Clc1ccccc1CSc1nnc(-c2ccccn2)n1Cc1ccco1 | – | inconclusive: 79.4 µM [inhibitor, single point] |
| CCc1ccc(NC(=O)CSc2nc(C)c(C(=O)Nc3ccccc3)c(-c3ccc(OC)c(OC)c3)c2C#N)cc1 | – | inactive |
| CCOc1ccc(CC(=NCCc2ccccc2)C2=C(O)CC(C)(C)CC2=O)cc1OCC | – | active: 70.8 µM |
| O=C(CSCc1c(F)cccc1Cl)NNC(=S)NC1CCCCC1 | – | inconclusive: 39.8 µM [inhibitor, partial curve, poor fit] |
| Cc1ccc(SCC(=O)NN2C(=O)c3ccccc3C2=O)cc1 | – | inconclusive: 0.708 µM [inhibitor, partial curve] |
| Cc1cc(NS(=O)(=O)c2ccc(Nc3nc(-c4ccc(C)c(C)c4)cs3)cc2)no1 | – | inconclusive: 31.6 µM [inhibitor, partial curve, poor fit] |
| CCC(C)N(C(=O)COc1ccccc1C(=O)NCc1ccccc1)C1CCS(=O)(=O)C1 (centres undefined) | – | inconclusive: 35.5 µM [inhibitor, partial curve, poor fit] |
| CNc1ncnc2c1ncn2[C@H]1C[C@H](OP(=O)(O)O)[C@@H](COP(=O)(O)O)O1 | – | active: 20 µM |
| CN(C)S(=O)(=O)c1cc(NC(=O)CNCc2ccccc2)ccc1Cl | – | active: 2.24 µM |
| Clc1cc(Br)ccc1OCCCn1ccnc1 | – | inconclusive: 31.6 µM [inhibitor, single point] |
| O=C(COc1ccc(S(=O)(=O)NCc2ccccc2)cc1)NCc1cccnc1 | – | inconclusive: 39.8 µM [inhibitor, single point] |
| O=C(OCc1cc(=O)n2nc(-c3cccs3)sc2n1)c1ccccc1Cl | – | inactive |
| COc1cccc(CNS(=O)(=O)c2cc3c4c(c2)CCN4C(=O)CC3)c1 | inconclusive: -52.3% [inhibitor] [at 2.33 µM] | – |
| COc1cccc(CSc2nc3n(n2)C(c2ccc(C(=O)O)cc2)C(C(=O)Nc2ccccc2)=C(C)N3)c1 (centres undefined) | – | inactive |
| COc1ccc(Cc2nnc(N)s2)cc1 | – | inconclusive: 7.94 µM [inhibitor, full curve, poor fit] |
| COc1cccc(C(=O)N2CCN(S(=O)(=O)Cc3ccccc3)CC2)c1 | – | inconclusive: 0.316 µM [inhibitor, partial curve, poor fit] |
| O=C(COC(=O)/C=C/c1ccccc1)Nc1ccc(Cl)cn1 | – | inconclusive: 56.2 µM [inhibitor, partial curve, poor fit] |
| Cc1c(C(=O)NCC2COc3ccccc3O2)oc2ccc(S(=O)(=O)N3CCOCC3)cc12 (centres undefined) | – | active: 50.1 µM |
| O=c1[nH]c2ccc(S(=O)(=O)Nc3ccc(Cl)cc3)cc2o1 | – | inconclusive: 14.1 µM [inhibitor, partial curve, poor fit] |
| CN(CC(=O)N1CCN(c2ccc(F)cc2)CC1)S(=O)(=O)c1ccc2c(c1)c(=O)n(C)c(=O)n2C | – | inconclusive: 89.1 µM [inhibitor, partial curve, poor fit] |
| Cc1cc(NC(=O)c2cc(-c3ccc(C)s3)nc3ccccc23)no1 | – | inconclusive: 56.2 µM [inhibitor, partial curve, poor fit] |

| Compound | activity, negative = inhibition | Potency |
| --- | --- | --- |
| Cc1c(C(=O)N2CCCCCC2)c(S(=O)(=O)NCc2ccccc2)c(C)n1C | – | inactive |
| CCN(CC)CCCNc1nc(-c2ccccc2)nc2ccccc12 | – | inconclusive: 39.8 µM [inhibitor, single point] |
| O=C(CNC(=O)c1ccco1)NCC(=O)OCc1ccc(C(=O)Oc2ccc(Cl)cc2)cc1 | – | inconclusive: 70.8 µM [inhibitor, single point] |
| CSc1cccc(NC(=O)CSc2ncccc2C(=O)Oc2cccc([N+](=O)[O-])c2)c1 | – | inconclusive: 12.6 µM [inhibitor, single point] |
| CCC(Sc1ncnc2sc(C)c(C)c12)C(=O)OC (centres undefined) | – | active: 2 µM |
| COc1ccc(C(C(=O)NC2CCCC2)N(C(=O)c2ccoc2C)c2ccc(C)cc2)cc1 (centres undefined) | – | inconclusive: 11.2 µM [inhibitor, partial curve, poor fit] |
| O=C(C1CCCN(C2CC(=O)N(c3ccc(F)cc3)C2=O)C1)N1CCCC1 (centres undefined) | – | active: 44.7 µM |
| CC1=C(C#N)C(=O)NC(=O)/C1=C/c1ccc(-c2ccc(S(N)(=O)=O)cc2)o1 | – | active: 8.91 µM |
| CCOCCCNC(=S)NCCCNc1nc2cc3c(cc2cc1C#N)OCO3 | – | inconclusive: 25.1 µM [inhibitor, single point] |
| O=C1CC(=O)N(CCNc2ncc(C(F)(F)F)cc2Cl)C(=O)N1 | – | inactive |
| CC(CNC(=O)c1cnn(-c2ccc(F)cc2)c1-n1cccc1)c1ccccc1 (centres undefined) | – | inactive |
| CC(=O)Nc1ccccc1-c1nc2ccccc2n(CC(=O)Nc2cccc(C)c2C)c1=O | – | inconclusive: 22.4 µM [inhibitor, partial curve, poor fit] |
| COCCN(C(=O)c1ccco1)c1nnc(-c2ccc(F)cc2)s1 | – | inconclusive: 39.8 µM [inhibitor, partial curve] |
| CC(C)CNC(=O)CC(=O)N/N=C/c1ccc(Br)cc1 | – | inconclusive: 25.1 µM [inhibitor, partial curve, poor fit] |
| N/C(=N\OC(=O)CCCN1C(=O)c2ccccc2C1=O)c1ccccn1 | – | inconclusive: 89.1 µM [inhibitor, single point] |
| CCOc1ncccc1C(=O)N(C)CC(=O)Nc1ccccc1SC | – | inconclusive: 14.1 µM [inhibitor, single point] |
| Cc1ccc(S(=O)(=O)NCCC(=O)OCC(=O)NC(=O)c2cccn2C)cc1 | – | inconclusive: 89.1 µM [inhibitor, partial curve, poor fit] |
| O=C(Nc1ccc(F)c(Cl)c1)Nc1c[nH]c(=O)[nH]c1=O | – | inactive |
| Cc1ccc(C23CC4CC(CC(CN)(C4)C2)C3)cc1 | inconclusive: -53.8% [inhibitor] | – |
| Fc1ccccc1CN1CCCN(C(=S)Nc2cccc(Cl)c2)C1 | – | inactive |
| NC(=O)C1=C[C@@H](c2csc3ccccc23)C[C@@H](OCc2ccc(CO)cc2)O1 | inconclusive: -85% [inhibitor] | – |
| S=C(NCc1ccccc1)NC1CCCc2ccccc21 (centres undefined) | – | inactive |
| Cc1cc(C)c2nc(N3C(=O)C(O)=C(C(=O)c4ccco4)C3c3ccco3)sc2c1 (centres undefined) | – | inconclusive: 22.4 µM [inhibitor, partial curve, poor fit] |

| Compound | activity, negative = inhibition | Potency |
| --- | --- | --- |
| C/C(=N\N=c1/scc(C)n1Cc1ccco1)c1cccc([N+](=O)[O-])c1 | – | inconclusive: 12.6 µM [inhibitor, single point] |
| CCCCOc1ccc(CSc2ncn[nH]2)cc1 | – | inconclusive: 3.55 µM [inhibitor, single point] |
| N#Cc1ccc(C(=O)NC2CCCCCCC2)cc1 | – | inactive |
| Cc1cc(C)cc(N2C(=O)CSC23C(=O)N(Cc2c(F)cccc2Cl)c2ccccc23)c1 (centres undefined) | – | inconclusive: 2 µM [inhibitor, partial curve, poor fit] |
| CCOC(=O)c1cc(-c2ccccc2)n(CCC(=O)Nc2ccccc2CC)c1C | – | inactive |
| Cc1cc2c(cc1S(=O)(=O)Nc1cccc(Cl)c1C)n(C)c(=O)c(=O)n2C | – | inactive |
| Nc1c(/C=C2/C=CC(=O)C(O)=C2)c(=O)nc2sc(CC(=O)N3CCCCC3)nn12 | – | active: 10 µM |
| O=C(CN1CCN(c2ccccc2O)CC1)Nc1cc(S(=O)(=O)N2CCCC2)ccc1Cl | – | inconclusive: 22.4 µM [inhibitor, single point] |
| O=C1CC(N2CCC(O)(c3ccc(Cl)cc3)CC2)C(=O)N1Cc1ccc(N2CCCC2=O)cc1 (centres undefined) | inconclusive: -56.4% [inhibitor] | – |
| COc1cccc(/C=C2\N=C(C3CCCCC3)OC2=O)c1OC | – | inactive |
| CC(C)C[C@H](NC(=O)NCc1ccc(Cl)cc1)C(=O)O | – | active: 35.5 µM |
| C/C(=N\Nc1ccccn1)c1cccs1 | – | inactive |
| COc1ccc(N2CCN(S(=O)(=O)c3ccc(-c4coc(C)n4)cc3)CC2)cc1 | – | inconclusive: 7.08 µM [inhibitor, full curve] |
| O=C(Cn1ccc2cc(S(=O)(=O)N3CCCC3)ccc21)NCc1ccco1 | – | inconclusive: 14.1 µM [inhibitor, partial curve, poor fit] |
| Cc1cccc2c1N1C(=O)c3c(C(=O)O)cccc3C1CC2C (centres undefined) | – | inconclusive: 5.01 µM [inhibitor, partial curve, poor fit] |
| CSC(=S)N/N=C(\C)c1ccc(Br)cc1 | – | inconclusive: 17.8 µM [inhibitor, partial curve, poor fit] |
| CCCn1c(CCC(=O)O)ccc1-c1cccs1 | – | inconclusive: 10 µM [inhibitor, partial curve, poor fit] |
| O=S(=O)(Cc1ccccc1)Nc1ccc(F)cc1 | – | inconclusive: 89.1 µM [inhibitor, single point] |
| COc1cc(OC)c(OC)cc1CNCc1ccco1 | – | active: 28.2 µM |
| COc1cc(/C=C/C(=O)N2CCN(CC(=O)N3CCCC3)CC2)cc(OC)c1OC | inactive: -30.1% [at 12.7 µM] | – |
| CN1C(=S)SC(N(O)C(=O)Nc2ccccc2)C1(C)C (centres undefined) | inactive: -3.87% [at 12.7 µM] | – |
| CC(=O)NC(c1cccs1)c1cc([N+](=O)[O-])c2cccnc2c1O (centres undefined) | – | active: 7.94 µM |
| Cc1ccccc1OCCC(=O)N1CCN(S(=O)(=O)c2ccc(Cl)cc2)CC1 | – | active: 44.7 µM |
